Assay results: PubChem BioAssay AID1457 (National Center for Advancing Translational Sciences (NCATS), 2008)
The whole screen tested about 210,000 compounds, of which about 730 (0.35%) were called active. This list was built around the results that the source calls inconclusive (neither active nor inactive); the mix of calls is not that of the screen. Calls follow the shape of the dose curve; as a rule, active = well fitted inhibition curve with a large enough effect; inconclusive = small, poorly fitted or top-dose-only effect; inactive = no such curve, though single readings can be large or run the other way. Potencies beside an inconclusive call are fits to weak or partial responses and may not hold up.

Assay: qHTS Assay for Identifying the Cell-Membrane Permeable IMPase Inhibitors: Potentiation with Lithium; also: nearly all actives have a fitted effect of over 50% in size
Settings: CHO-M1 cells, IP1 TR-FRET (IP-One), carbachol + lithium; series mostly up to 59.4 µM
Outline: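 CHO-M1, 2000 cells/well, 16–30 h culture; cpd + low Li+, 30 min 37C; lysis with d2-IP1/Eu-anti-IP1 Ab, 10 min RT; TR-FRET 665/620 ratio and 620 channel; AC50 via Hill.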
Potency is read from the fitted curve at half-maximal effect.

Potency, inactive:
Cc1nc(NCc2ccccc2)c2nc(-c3ccccc3)n(CCCN3CCOCC3)c2n1
COc1ccc(-c2csc(NC(=O)c3ccccc3C(=O)O)n2)cc1
Cc1ccc(COc2ccccc2C(=S)N2CCCC2)cc1
CCC(=O)Nc1sc2c(c1C(N)=O)CCC2
Cc1cc(C)n2c(SCC(=O)Nc3c(C)n(C)n(-c4ccccc4)c3=O)nnc2n1
NC(Cn1ccc(=O)c(O)c1)C(=O)O (configuration not stated)
CC(OC(=O)c1cccs1)C(=O)NCc1ccccc1 (configuration not stated)
CCCc1nc2cc(Cl)c([N+](=O)[O-])cc2o1
COc1ccc(-n2c(N)c(C(=O)NCC3CCCO3)sc2=S)cc1 (configuration not stated)
S=C(NC1CCCC1)N1CCN(c2ccccn2)CC1
CCOc1ccccc1C(=O)NC(C(=O)NCc1ccccc1OC)C(C)C (configuration not stated)
CN1CCN(c2ccnc(-c3ccccc3C(F)(F)F)n2)CC1
O=C(O)CCSCC(=O)c1ccc2c(c1)OCCO2
O=c1[nH]c2[nH]c(=S)[nH]c(=S)c2[nH]1
COc1ccc(OC)c(S(=O)(=O)Nc2cc(OC)c(Cl)cc2OC)c1
Cc1ccc2c(CSc3nnnn3C)cc(=O)oc2c1
Oc1c(Cl)cc(Cl)cc1CNc1ccc(Br)cn1
CC(C)(C)c1ccc(O)c(O)c1
COc1ccc(OC)c(NC(=O)CSc2nnc(Cn3nnc4ccccc43)n2C)c1
CCc1nnc(NC(=O)CSc2nnc(COc3ccccc3)n2-c2ccc(C)cc2)s1
O=C(Nc1cccnc1)Nc1ccccc1Cl
CCc1c(C)nc2ccc(Br)cc2c1SCCC#N
COc1ccc(C(=O)NCCC2=CCCCC2)cc1
CN1CCN(/C=N/c2sc3c(c2C#N)CCCCC3)CC1

Potency, inconclusive:
COC(=O)c1ccc(C(=O)Nc2cc(Cl)ccc2Cl)cc1NC(=O)c1ccccc1C 28.2 µM [inhibitor, single point]
COc1ccc(-n2c(NC(=O)c3ccco3)c(C#N)c3nc4ccccc4nc32)cc1 15.8 µM [inhibitor, partial curve]
CCN(CC(=O)NC1CCS(=O)(=O)C1)c1ccc(S(C)(=O)=O)cc1[N+](=O)[O-] (configuration not stated) 0.355 µM [inhibitor, partial curve, poor fit]
COc1cc(NC(=O)c2cccs2)c(C(=O)OCC(=O)NCc2ccccc2)cc1OC 31.6 µM [inhibitor, single point]
CCN(CC)S(=O)(=O)c1cc(C(=O)OCC(=O)Nc2ccc(-c3nc4ccc(C)cc4s3)cc2)ccc1F 25.1 µM [inhibitor, single point]
O=C(Nc1ccc(Cl)cc1Cl)c1cccc(N2C(=O)C=CC2=O)c1 31.6 µM [inhibitor, single point]
Cc1nc2cnc(N(C)C)nc2n(Cc2ccc(F)cc2)c1=O 10 µM [inhibitor, single point]
O=C(c1ccc2c(c1)[nH]c(=S)n1c3ccccc3nc21)N1CCN(c2cccc(Cl)c2)CC1 11.2 µM [inhibitor, partial curve]
COc1ccc(OC)c(-n2nnnc2SCC(=O)Nc2nc(C)c(C)s2)c1 28.2 µM [inhibitor, single point]
O=C(CSc1ccc2ccccc2c1Br)Nc1cccc(S(=O)(=O)NC2=NCCCCC2)c1 28.2 µM [inhibitor, single point]
N#CCCn1c(=O)c(-c2cccs2)nc2cnc(Oc3ccccc3)nc21 28.2 µM [inhibitor, single point]
CC1CCN(c2[nH]c(=S)c(C#N)c3c2CCCC3)CC1 6.31 µM [inhibitor, full curve]
CCOc1ccc(N(Cc2cc3ccc(C)cc3[nH]c2=O)S(C)(=O)=O)cc1 14.1 µM [inhibitor, single point]
CCCCOc1cccc(-c2nnc(NC(=O)CSc3ccc(C)cc3)s2)c1 10 µM [inhibitor, single point]
C[C@H]1c2cccc(O)c2C(O)=C2C(=O)[C@]3(O)C(O)=C(C(N)=O)C(=O)C(N(C)C)[C@@H]3[C@@H](O)C21 (some centres not stated) 10 µM [inhibitor, partial curve]
Cc1sc2nc(SCC(=O)N3CCN(CCO)CC3)n(-c3ccccc3)c(=O)c2c1C 28.2 µM [inhibitor, single point]
COC(=O)c1c(NC(=O)c2ccccc2)sc(C(N)=O)c1C 28.2 µM [inhibitor, single point]
COc1ccc(-c2ccc(SCC(=O)Nc3nccs3)nn2)cc1OC 11.2 µM [inhibitor, single point]
CCCOC(=S)NC(=O)c1sc2ccccc2c1Cl 10 µM [inhibitor, partial curve]
CCOC(=O)c1cccc(NC(=O)CSc2nnc(COc3ccc(Cl)cc3)o2)c1 28.2 µM [inhibitor, single point]
CCOc1ccc(/C=N/NC(=O)c2cc(-c3cccn3C)n[nH]2)cc1 3.16 µM [inhibitor, single point]
COc1cccc(NC(=S)NC(=O)c2c(Cl)c(C)nn2C)c1 20 µM [inhibitor, single point]
O=C(O)c1cccc(N2C(=O)C3C4C=CC(C4=C(c4ccccc4)c4ccccc4)C3C2=O)c1 (configuration not stated) 28.2 µM [inhibitor, single point]
CCCOc1ccc(C2/C(=C(\O)c3c(C)[nH]c(C(=O)OC)c3C)C(=O)C(=O)N2CCN(C)C)cc1 (configuration not stated) 11.2 µM [inhibitor, partial curve]
CCSc1ncnc2c1sc1nc3c(cc12)COC(C)(C)C3 12.6 µM [inhibitor, single point]
CC(C)(C)C(=O)CSc1nc2c(c(-c3cccs3)c1C#N)CCC2 11.2 µM [inhibitor, partial curve]
CCn1c(Cc2ccccc2)nnc1SCC(=O)Nc1nc2ccccc2s1 28.2 µM [inhibitor, single point]
CCOc1cccc2sc(Nc3nc4ccc(NC(C)=O)cc4s3)nc12 28.2 µM [inhibitor, single point]
CCc1ccc(NC(=O)COc2ccc(/C=C(/C#N)c3nc4ccccc4[nH]3)cc2OC)cc1 10 µM [inhibitor, single point]
N#CCSc1nc2[nH]ncc2c(=O)n1-c1ccccc1Br 11.2 µM [inhibitor, partial curve, poor fit]
O=C(CSc1nc(CCC2CCCC2)nc2ccccc12)NCc1ccc2c(c1)OCO2 28.2 µM [inhibitor, single point]
COc1ccc(Nc2ncc3nc(-c4cccs4)c(=O)n(Cc4cccc(OC)c4)c3n2)cc1 12.6 µM [inhibitor, partial curve]
CCOc1ccccc1NC(=O)CCCn1cc([N+](=O)[O-])cn1 3.16 µM [inhibitor, full curve, poor fit]
CC(C)c1nc2sc3c(NCc4ccco4)ncnc3c2c2c1COC(C)(C)C2 28.2 µM [inhibitor, single point]
Cc1cccc(/N=C2/NC(=O)C(Cc3ccccc3)S2)n1 (configuration not stated) 28.2 µM [inhibitor, single point]
Cc1nc(NC(=O)c2ccccc2)nc2cc3c(cc12)OCO3 31.6 µM [inhibitor, single point]
CCOc1ccc(-c2nnc(SCC(=O)Nc3ccc4c(c3)c3ccccc3n4CC)n2N)cc1 28.2 µM [inhibitor, single point]
COC(=O)c1c(C)c(C)nc(N)c1C#N 28.2 µM [inhibitor, single point]
Cc1ccsc1C(=O)Nc1ccc(O)c(-c2nc3ccccc3s2)c1 28.2 µM [inhibitor, single point]
Cc1cc(C)c(C(=O)CSc2nnc(-c3ccccc3Br)o2)cc1C 28.2 µM [inhibitor, single point]
CCOC(=O)c1sc(NC(=O)c2ccc3ncsc3c2)nc1C 12.6 µM [inhibitor, single point]
CC1(C)Cc2nc3oc4c(=S)nc[nH]c4c3cc2CO1 6.31 µM [inhibitor, partial curve]
Cc1cc(=O)[nH]c(Sc2c(-c3ccccc3)c3ccccc3[nH]c2=O)n1 11.2 µM [inhibitor, partial curve]
CNC(=O)CNC(=O)Nc1ccc(C)cc1 0.891 µM [inhibitor, partial curve]
CCOc1ccc(C2C(C#N)=C(N)SC(N)=C2C#N)cc1OCC 11.2 µM [inhibitor, single point]
C=CCSc1nnc(NC(=O)c2cn(CC)c3nc(C)ccc3c2=O)s1 28.2 µM [inhibitor, single point]
CC1=NN2C(=N)/C(=C\c3cc(C)n(-c4ccccc4)c3C)C(=O)N=C2S1 12.6 µM [inhibitor, single point]

Potency, active:
COc1ccc(NC(=O)CCC(=O)c2ccc(-c3ccccc3)cc2)cc1 31.6 µM
